This experiment addresses FLAG-53BP1 WT (human) (UniProt Q12888). The experiment can be described thus: co-IP; FLAG-53BP1 WT, ΔMFF or IEDI_AAAA transfected in HEK293T, MLN4924 3 h; immunoprecipitation and blot for GMCL1.

The chains behind the UniProt entries cited, without tags or fusion partners.
UniProt Q12888: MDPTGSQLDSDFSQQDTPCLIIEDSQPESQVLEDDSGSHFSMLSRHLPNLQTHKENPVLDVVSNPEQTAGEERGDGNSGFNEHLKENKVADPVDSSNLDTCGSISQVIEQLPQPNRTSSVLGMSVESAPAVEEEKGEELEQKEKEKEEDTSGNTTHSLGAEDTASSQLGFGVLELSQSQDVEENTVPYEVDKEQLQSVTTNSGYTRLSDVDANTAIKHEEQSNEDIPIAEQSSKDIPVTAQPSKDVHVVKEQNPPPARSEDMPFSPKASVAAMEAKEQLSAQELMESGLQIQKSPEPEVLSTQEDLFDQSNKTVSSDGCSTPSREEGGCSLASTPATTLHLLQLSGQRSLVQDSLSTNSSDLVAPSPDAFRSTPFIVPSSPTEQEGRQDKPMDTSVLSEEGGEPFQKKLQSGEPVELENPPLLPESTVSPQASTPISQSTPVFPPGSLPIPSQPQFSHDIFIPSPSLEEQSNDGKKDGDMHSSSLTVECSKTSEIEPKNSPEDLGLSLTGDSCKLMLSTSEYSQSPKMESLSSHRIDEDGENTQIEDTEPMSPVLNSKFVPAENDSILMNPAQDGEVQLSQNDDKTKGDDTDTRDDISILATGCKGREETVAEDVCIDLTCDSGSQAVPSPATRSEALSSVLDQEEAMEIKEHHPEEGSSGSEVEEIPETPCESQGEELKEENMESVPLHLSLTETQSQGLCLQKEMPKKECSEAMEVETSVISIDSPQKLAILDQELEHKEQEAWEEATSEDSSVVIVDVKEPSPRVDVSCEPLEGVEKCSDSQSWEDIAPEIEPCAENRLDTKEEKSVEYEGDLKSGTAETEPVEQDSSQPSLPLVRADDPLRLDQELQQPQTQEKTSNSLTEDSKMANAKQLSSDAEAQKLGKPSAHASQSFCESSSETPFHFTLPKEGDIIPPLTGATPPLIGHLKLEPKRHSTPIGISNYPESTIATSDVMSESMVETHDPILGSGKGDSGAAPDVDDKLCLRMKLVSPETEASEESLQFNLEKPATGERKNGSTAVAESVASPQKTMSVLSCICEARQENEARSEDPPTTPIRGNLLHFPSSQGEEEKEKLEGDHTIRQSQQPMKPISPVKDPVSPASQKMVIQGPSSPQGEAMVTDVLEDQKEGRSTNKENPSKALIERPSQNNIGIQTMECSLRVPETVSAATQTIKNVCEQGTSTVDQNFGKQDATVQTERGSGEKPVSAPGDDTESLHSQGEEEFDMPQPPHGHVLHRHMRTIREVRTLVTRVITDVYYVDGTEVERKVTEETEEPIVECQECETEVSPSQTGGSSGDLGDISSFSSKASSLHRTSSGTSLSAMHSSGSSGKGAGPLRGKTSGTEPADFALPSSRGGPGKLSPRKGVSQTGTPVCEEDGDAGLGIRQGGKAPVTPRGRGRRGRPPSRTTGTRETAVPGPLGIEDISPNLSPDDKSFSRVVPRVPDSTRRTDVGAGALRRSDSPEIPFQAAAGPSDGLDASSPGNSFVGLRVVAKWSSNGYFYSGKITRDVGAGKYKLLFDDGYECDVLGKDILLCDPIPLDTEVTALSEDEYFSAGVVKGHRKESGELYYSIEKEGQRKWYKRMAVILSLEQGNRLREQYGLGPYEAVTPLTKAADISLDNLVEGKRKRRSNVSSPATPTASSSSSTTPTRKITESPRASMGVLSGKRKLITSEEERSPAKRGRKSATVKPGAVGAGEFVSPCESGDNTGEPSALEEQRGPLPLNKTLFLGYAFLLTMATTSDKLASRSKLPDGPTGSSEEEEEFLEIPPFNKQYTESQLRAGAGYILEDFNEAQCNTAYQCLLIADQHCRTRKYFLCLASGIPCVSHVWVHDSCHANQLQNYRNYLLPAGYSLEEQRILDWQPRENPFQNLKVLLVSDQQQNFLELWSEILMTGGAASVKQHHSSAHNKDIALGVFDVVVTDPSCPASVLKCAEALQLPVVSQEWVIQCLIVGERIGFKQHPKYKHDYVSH

These are yes or no findings as the source states them, for the method shown. In cells and extracts the contact can be indirect. Some results given as binding are weak or reduced against the parent protein; the word gives no strength.

B1: endogenous GMCL1, HEK293T (protein, UniProt Q96IK5 1-515)
chain: MGSLSSRVLRQPRPALAQQAQGARAGGSARRPDTGDDAAGHGFCYCAGSHKRKRSSGSFCYCHPDSETDEDEEEGDEQQRLLNTPRRKKLKSTSKYIYQTLFLNGENSDIKICALGEEWSLHKIYLCQSGYFSSMFSGSWKESSMNIIELEIPDQNIDVEALQVAFGSLYRDDVLIKPSRVVAILAAACLLQLDGLIQQCGETMKETVNVKTVCGYYTSAGTYGLDSVKKKCLEWLLNNLMTHQNVELFKELSINVMKQLIGSSNLFVMQVEMDIYTALKKWMFLQLVPSWNGSLKQLLTETDVWFSKQRKDFEGMAFLETEQGKPFVSVFRHLRLQYIISDLASARIIEQDAVVPSEWLSSVYKQQWFAMLRAEQDSEVGPQEINKEELEGNSMRCGRKLAKDGEYCWRWTGFNFGFDLLVTYTNRYIIFKRNTLNQPCSGSVSLQPRRSIAFRLRLASFDSSGKLICSRTTGYQILTLEKDQEQVVMNLDSRLLIFPLYICCNFLYISPEKKN
Consider B1, for which the binding result is reported as “binds”.

(Values after doi:10.1101/2025.03.18.643855.)
